This passage reports viscosity results from the CheMixHub viscosity set.

The structures appear in SMILES notation. ± gives the uncertainty stated by the source. The source holds more than one record for some entries. Only these are listed. An entry can have further records. Values that stand side by side are repeats in other runs, samples, wells, individuals or studies. Marks in square brackets tell the records apart. Letters hold for one entry only.

On to `CC(C)O`, for which the viscosity reads like this: (293.15 K, 101 kPa) 2.439 ± 0.052 mPa·s [study A] and 2.47 ± 0.07 mPa·s [study B] and 2.437 ± 0.022 mPa·s [study C] and 2.444 ± 0.074 mPa·s [study D]; (293.15 K, 101.33 kPa) 2.543 ± 0.025 mPa·s [study A] and 2.397 ± 0.051 mPa·s [study B] and 2.396 ± 0.05 mPa·s [study C] and 1.7 ± 0.029 mPa·s [study D]; (298.15 K, 101 kPa) 2.009 ± 0.026 mPa·s, 2.093 ± 0.064 mPa·s, 2.094 ± 0.019 mPa·s, 1.995 ± 0.015 mPa·s, 2.089 ± 0.033 mPa·s, 1.985 ± 0.089 mPa·s, 2.134 ± 0.045 mPa·s, 2.089 ± 0.037 mPa·s, 2.031 ± 0.027 mPa·s, 1.991 ± 0.053 mPa·s [several studies]; (303.15 K, 101 kPa) 1.845 ± 0.039 mPa·s [study A] and 1.734 ± 0.079 mPa·s [study B] and 1.547 ± 0.023 mPa·s [study C] and 1.654 ± 0.04 mPa·s [study D]; (308.15 K, 101 kPa) 1.603 ± 0.034 mPa·s [study A] and 1.482 ± 0.069 mPa·s [study B] and 1.178 ± 0.018 mPa·s [study C] and 1.494 ± 0.037 mPa·s [study D].
